# Data taken from article PMC4336329 (PLoS ONE, 2015).
# The whole screen tested about 310,000 compounds, of which about 2,200 (0.71%) showed an effect of 50% or more. Effects have a minus sign here. Some of the results follow.
# Target: human ether-à-go-go-related gene (hERG) potassium channel (human, UniProt Q12809)
# Assay: primary screen, population patch clamp on CHO cells stably expressing hERG
# human ether-à-go-go-related gene (hERG) potassium channel, sequence (Q12809 whole entry, looked up): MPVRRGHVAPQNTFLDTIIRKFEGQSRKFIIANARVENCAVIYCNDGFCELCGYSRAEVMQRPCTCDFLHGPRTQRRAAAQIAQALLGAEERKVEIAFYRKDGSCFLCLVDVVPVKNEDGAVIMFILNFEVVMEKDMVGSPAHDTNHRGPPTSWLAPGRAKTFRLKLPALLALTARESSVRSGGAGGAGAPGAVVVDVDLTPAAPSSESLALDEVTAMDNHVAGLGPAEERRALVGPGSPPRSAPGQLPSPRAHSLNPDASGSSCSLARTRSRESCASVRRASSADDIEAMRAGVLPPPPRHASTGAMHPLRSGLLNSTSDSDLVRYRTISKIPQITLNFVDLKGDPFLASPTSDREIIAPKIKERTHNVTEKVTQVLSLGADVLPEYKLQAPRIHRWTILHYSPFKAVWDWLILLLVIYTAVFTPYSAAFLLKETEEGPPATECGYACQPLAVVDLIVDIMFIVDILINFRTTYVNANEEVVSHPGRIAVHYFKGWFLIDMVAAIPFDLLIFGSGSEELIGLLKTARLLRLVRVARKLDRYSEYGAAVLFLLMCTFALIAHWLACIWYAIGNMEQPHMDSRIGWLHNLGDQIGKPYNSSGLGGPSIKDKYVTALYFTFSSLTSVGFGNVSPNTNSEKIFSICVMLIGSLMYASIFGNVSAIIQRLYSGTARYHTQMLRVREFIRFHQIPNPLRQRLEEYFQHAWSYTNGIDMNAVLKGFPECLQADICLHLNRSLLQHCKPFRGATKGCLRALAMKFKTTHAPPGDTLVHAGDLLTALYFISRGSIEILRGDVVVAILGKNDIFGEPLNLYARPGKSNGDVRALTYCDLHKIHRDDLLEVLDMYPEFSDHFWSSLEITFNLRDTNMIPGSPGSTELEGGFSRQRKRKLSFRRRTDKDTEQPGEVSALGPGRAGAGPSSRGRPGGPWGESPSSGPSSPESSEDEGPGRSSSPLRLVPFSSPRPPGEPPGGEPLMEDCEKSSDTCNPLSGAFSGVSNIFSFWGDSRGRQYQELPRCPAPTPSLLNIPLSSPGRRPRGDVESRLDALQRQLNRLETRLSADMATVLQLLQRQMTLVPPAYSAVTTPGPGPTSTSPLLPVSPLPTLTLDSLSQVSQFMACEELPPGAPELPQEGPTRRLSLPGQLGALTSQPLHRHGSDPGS
row,Structure (SMILES),"hERG current change (%, negative = inhibition) at 1uM [%]"
1,O=C(O)c1cccc(N/N=C/c2cccc3ccccc23)c1,8.39
2,CCN(CC)CCOC(=O)C1(c2ccc(OC)c(OC)c2)CCCC1.Cl,1.73
3,COc1ccc2[nH]cc(C(=O)CN3CCN(C(=O)c4ccco4)CC3)c2c1,11.4
4,Oc1ccc(-c2nccc(-c3ccc(Cl)cc3Cl)n2)cc1,11.8
5,CC(C)c1c(C(=O)N/N=C/c2c[nH]c3ccccc23)nnn1-c1nonc1N,3.36
6,O=S(=O)(c1cccc(NC(=S)NCc2ccco2)c1)N1CCOCC1,7.48
7,O=C(CN(Cc1ccco1)C(=O)CNS(=O)(=O)c1ccc(Cl)cc1)NC1CCCCC1,5.5
8,Cc1ccc(-n2ncc3c2CC(C)(C)CC3NC(=O)c2ccc[n+]([O-])c2)cc1 (centres unmarked),7.22
9,COc1ccc(/C=C/C(=O)NCC2COc3ccccc3O2)c(OC)c1 (centres unmarked),-6.61
10,Cc1ccc(-n2c(O)c(C=Nc3ccccc3N)c(=O)[nH]c2=O)cc1C,-1.34
11,Cc1onc(-c2ccccc2)c1C(=O)N/N=C(\N)COc1ccc(Cl)cc1,-0.362
12,CC(=O)Nc1cccc(NC(=O)CSc2ncc(-c3ccccc3)[nH]2)c1,6.01
13,Cn1c(SCC(=O)NCCN2C(=O)CSC2=O)nnc1-c1ccccc1,15.1
14,Cc1cc(C)cc(NC(=O)C(=O)NCC2CCCN2S(=O)(=O)c2cccs2)c1 (centres unmarked),5.71
15,O=C(OCN1C(=O)c2ccccc2C1=O)c1cccc(S(=O)(=O)N2CCOCC2)c1,12.7
16,COc1ccc(N(C)S(=O)(=O)c2cccc(C(=O)NC3CCCC3)c2)cc1,4.43
17,COc1cccc(CCNC(=O)c2cccc(NC(=O)C3=C(C)OCCS3)c2)c1,6
18,CCC/C(O)=C1\C(=O)CCCC1=NCCc1ccc(OCC)c(OCC)c1,3.78
19,CC1C(=O)C(C)C(c2cc(Cl)ccc2O)NC1c1cc(Cl)ccc1O (centres unmarked),12
20,COc1ccc(S(=O)(=O)Cc2ccc(C(=O)N3CCN(c4ccc(Cl)cc4)CC3)o2)cc1,-17.3
21,O=c1cc(-c2cccc(F)c2)[nH]c2ccccc12,9.83
22,Cc1ccc2nc(-c3cccc(NC(=O)c4ccco4)c3)[nH]c2c1,3.16
23,COc1ccc(Cl)cc1N(C(=O)c1ccco1)C(C(=O)NC1CCCC1)c1ccco1 (centres unmarked),9.81

row,Structure (SMILES),"hERG current change (%, negative = inhibition) at 1uM [%]"
1,O=C(CSc1nnc(Cc2cccs2)n1-c1ccccc1)Nc1ccc2c(c1)OCCO2,5.05
2,O=c1nc2ccccc2c2n1CC(CN1CCN(c3cccc(Cl)c3)CC1)N2 (centres unmarked),-38.9
3,CCOC(=O)N(Cc1ccccc1)Cc1ccc(C(=O)N[C@@H](Cc2ccccc2)C(=O)O)cc1,12.8
4,O=C(CSc1nnc(-c2cccs2)n1-c1ccccc1)N1CCCC1,-4
5,CC(OC(=O)CCC1CCCCC1)C(=O)Nc1ccc(S(N)(=O)=O)cc1 (centres unmarked),9.83
6,CC(=O)Nc1ccc(C2CC(c3ccc(Cl)cc3)=NN2c2ccccc2)cc1 (centres unmarked),0.669
7,CC(=O)/C(=C/N(C)C)Sc1ccc(C)cc1,12.7
8,O=C(Nc1ccc2c(c1)OCCO2)C1CCN(S(=O)(=O)c2cccs2)CC1,-9.01
9,O=C(NCc1ccccn1)[C@@H]1C[C@H]1[C@@H](NP(=O)(c1ccccc1)c1ccccc1)c1ccccc1,8.94
10,NC(=O)C1CCN(C(=O)c2cccc(S(=O)(=O)N3CCc4ccccc4C3)c2)CC1,8.76
11,O=C(c1ccncc1)c1ccc([N+](=O)[O-])cc1,12.9
12,C=CCSc1nnc(CNS(=O)(=O)c2ccc(C)cc2)n1C,5.39
13,CCOC(=O)C1=C(C)N=C2SC=C(C)N2C1c1ccc(OC)cc1.Cl (centres unmarked),0.846
14,CC1=C(C)C(=O)N(c2ccc(C(=O)O)cc2)C1=O,5.87
15,C=CCn1c(SCc2csc(C)n2)nc2sc3c(c2c1=O)CCC(C)C3 (centres unmarked),18.8
16,CC1(C)NC(=O)N(CC(O)Cn2nnc3ccccc32)C1=O.Cl (centres unmarked),5.34
17,O=c1c(Cl)c(Cl)cnn1Cc1ccccc1Cl,6.3
18,CC1CN(/C=C/C(=O)C(F)(F)F)CC(C)O1 (centres unmarked),12.9
19,COCCCNC(=S)NNC(=O)c1ccc2c(c1)OCO2,-0.487
20,CCOc1ccc(NC(=O)CSc2ncnc3c2sc2ccccc23)cc1,9.47
21,Cc1nc(SCc2ccc(F)cc2)n[nH]1,14.5
22,CCOc1ccccc1C(=O)Nc1nnc(C(C)C)s1,8.15
23,C[C@H](NC(=O)C1CC(=O)N(c2ccc3c(c2)OCCO3)C1)C(=O)N1CCC(C(=O)O)CC1 (some centres unmarked),15.3

row,Structure (SMILES),"hERG current change (%, negative = inhibition) at 1uM [%]"
1,COc1cccc(C2C(C(C)=O)=C(C)Nc3ncnn32)c1 (centres unmarked),-0.273
2,CCn1c(=O)c(C(=O)NNC(=O)Cc2ccccc2)c(O)c2ccccc21,15
3,O=C(Nc1ccn(CC(=O)N2CCN(c3ccccn3)CC2)c(=O)n1)OCc1ccccc1,10.2
4,CSc1cc(C)c(OCC(=O)Nc2c(C)nn(C)c2C)c(C)c1,1.26
5,COc1ccc(C)cc1-n1cnnn1,14.4
6,CCC(CC)c1nnc(NC(=O)c2ccc(N3CCCCC3)c([N+](=O)[O-])c2)s1,-9.23
7,COCC(=O)N1CCCC(CNS(=O)(=O)c2ccc(OC)cc2)C1 (centres unmarked),17.2
8,Cc1ccc(C(=O)Nc2ccc(N3CCN(C(=O)c4cccs4)CC3)cc2)c(Cl)c1,5.07
9,COC(=O)c1c(C)nsc1NC(=O)Oc1ccccc1,14.3
10,O/N=C/c1ccccc1OCc1ccccc1Cl,10.2
11,Cc1cc(C)nc(SCNC(=O)c2ccc(Cl)cc2)n1,20.2
12,CCOc1cc(/C=N/NC(=O)c2cccnc2)cc(Br)c1OCC(N)=O,-69.4
13,O=C(NCc1ccccc1)c1cc2ccccc2oc1=O,11
14,O=C(NC(=S)NNC(=O)c1ccccc1O)c1cccs1,12.5
15,COc1c(C)cc(S(=O)(=O)N2CCCC2)c(C)c1C,-0.179
16,Cn1c(-c2c(N)n(CCc3ccccc3)c3nc4ccccc4nc23)nc2ccccc21,3.68
17,O=C(/C=C\c1ccccc1)Oc1cccc2cccnc12,9.02
18,CCN(CC)C(=O)Oc1c(Cl)cc(Cl)c2cccnc12,7.57
19,Cc1ccc(CNC(=O)CC2(CC3=NS(=O)(=O)c4ccccc4N3)CCCC2)cc1,8.2
20,CC(C)(C)c1ccc(C(=O)N2CCCC2)s1,14.4
21,Cc1c(C)c2ccc(Oc3ccc([N+](=O)[O-])cc3C(F)(F)F)c(C)c2oc1=O,14.1
22,CCOc1cccc(OCCCCn2ccnc2)c1,-2.74
23,CC1(C(=O)NCc2cccnc2)CCC(=O)N1Cc1cccs1 (centres unmarked),11.6

row,Structure (SMILES),"hERG current change (%, negative = inhibition) at 1uM [%]"
1,O=C(COc1ncnc2ccccc12)NCCCN1CCCC1=O,-3.47
2,CCN1CCN(CC(O)COC(c2ccccc2)c2ccccc2)CC1 (centres unmarked),7.15
3,Cc1ccc(-c2nnc(-c3ccncc3)n2-c2ccc(C)cc2)cc1,4.94
4,CCc1c(C#N)c(SCCC(=O)Nc2cccc(OC)c2)nc2c1C(=O)CC(C)(C)C2,13
5,COc1ccc(Cc2ccc(OC)c(N)c2)cc1N,1.31
6,Cc1cccc(NC(=O)CSCC(=O)N(C)CCOc2ccc(Cl)cc2)c1,9.05
7,O=C(Nc1ccc2c(c1)OCO2)Nc1cnccn1,5.8
8,O=C(NC1CCCC1)C1CC(=O)N(CCc2ccccc2)C1 (centres unmarked),14.5
9,CC(=O)N1CCc2cc(Br)cc(S(=O)(=O)N3CCC(C(=O)O)CC3)c21,9.67
10,COc1ccc(-c2nc(N)n(S(=O)(=O)c3ccc(C)cc3)n2)cc1,28.4
11,COC(=O)Cc1cc(=O)[nH]c(/N=C(\N)Nc2ccc(C)cc2C)n1,5.4
12,N#Cc1nc(-c2cccs2)oc1N1CCOCC1,7.52
13,Cc1cc(NC(=O)CSc2nc(CC(C)(C)C)nc3c2c(=O)n(C)c(=O)n3C)no1,10
14,COc1cc(OC)c(C(=O)NNC(=S)NC2CCCCC2)cc1OC,13
15,CCOC(=O)C1(CCCc2ccccc2)CCN(C(=O)Cc2nonc2C)CC1,-13
16,Cn1c(-c2ccccc2)cnc1SCC(=O)N1CCCCC1,4.87
17,COC(=O)c1c(CSc2ccc(C)c(C)c2)noc1C(=O)NCc1ccc(OC)cc1,-0.265
18,O=C(NCc1ccccc1F)C1CCCN(C(=O)Nc2ccc(F)cc2)C1 (centres unmarked),9.36
19,CC(C)C(=O)Nc1ccc(C(=O)CN2C(=O)NC3(CCOc4ccccc43)C2=O)cc1 (centres unmarked),7.29
20,CC(=O)c1ccc(S(=O)(=O)N2CCN(C(=O)CN3C(=O)NC4(CCCC4)C3=O)CC2)cc1,8.95
